The other results are listed elsewhere or left out.

The test system of the assay is HSkMC (human skeletal muscle cells). Description: cytotoxicity call (relative viability < 0.9). Conditions: 10 µM.
On to `COc1ccc(CN(C)C[C@@H]2OCCCC[C@H](C)Oc3ccc(NC(=O)CCC(F)(F)F)cc3C(=O)N([C@H](C)CO)C[C@@H]2C)cc1`, for which the cytotoxicity call was “inactive”. Then `CN(C)CC(=O)N1[C@@H](CO)[C@@H](c2ccc(C3=CCCC3)cc2)C12CN(S(=O)(=O)Cc1ccccc1)C2`, with “inactive”; and `NC(CSSCC(N)C(=O)O)C(=O)O` (stereo unspecified), with “inactive”. Then `C[C@H](CO)N1C[C@H](C)[C@H](CN(C)Cc2ccccc2)Oc2cc(C#Cc3ccccn3)ccc2S1(=O)=O`, with “inactive”; and `C[C@H](CO)N1C[C@H](C)[C@@H](CN(C)C(=O)Cc2ccncc2)Oc2cc(C3=CCCC3)ccc2S1(=O)=O`, with “inactive”; and `CN1CCN(C(=O)C[C@H]2CC[C@H]3[C@@H](COC[C@H](O)CN3S(=O)(=O)c3cccc(Cl)c3)O2)CC1`, with “inactive”. Then `C[C@@H]1CCCCO[C@H](CN(C)S(=O)(=O)c2cn(C)cn2)[C@H](C)CN([C@@H](C)CO)C(=O)c2cc(NC(=O)Nc3ccc(C(F)(F)F)cc3)ccc2O1`, with “inactive”; and `COc1ccc(S(=O)(=O)N(C)C[C@H]2Oc3ccc(NS(C)(=O)=O)cc3C(=O)N([C@H](C)CO)C[C@H]2C)cc1`, with “inactive”; and `COc1ccc(S(=O)(=O)Nc2ccc3c(c2)CC(=O)N([C@H](C)CO)C[C@@H](C)[C@H](CN(C)Cc2ccncc2)O3)cc1`, with “inactive”.

For the compound `COc1cccc(S(=O)(=O)N[C@H]2CC[C@@H](CC(=O)NC3CCC3)O[C@@H]2CO)c1`, the cytotoxicity call was “inactive”.

With `CO[C@H]1O[C@H](CO)[C@@H](OC(=O)Nc2ccccc2-c2ccccc2)[C@H](OC(=O)Nc2ccccc2)[C@@H]1OC(=O)Nc1ccccc1`, the cytotoxicity call was “inactive”.

For the origin of these results see the antibiotic and cytotoxicity screens of Wong et al. (2023).
